Experimental data taken from PubChem BioAssay AID1508623 (National Center for Advancing Translational Sciences (NCATS), 2021).
In all, about 48,000 compounds went through this assay and about 450 (0.94%) were called active. Roughly 19% stayed inconclusive and do not appear here. Calls follow the shape of the dose curve; as a rule, active = well fitted inhibition curve with a large enough effect; inconclusive = small, poorly fitted or top-dose-only effect; inactive = no such curve, though single readings can be large or run the other way. Some of the results follow.

Assay: Primary qHTS for Identification of Small Molecule Inhibitors of Huntingtin Promoter Activity; also: nearly all actives have a fitted effect of over 50% in size
Details: HEK293 HTT promoter firefly luciferase reporter (activity 0% = vehicle and -100% = no light), 24 h; series mostly up to 57.5 µM; activity change, negative = inhibition: at the top concentration
Procedure, shortened: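 HEK293 Fluc reporter, 2,500 cells/well, 24 h pre-culture; cpds up to 57.5 uM final, 24 h 37 degrees C; Dual-Glo, 10 min RT; normalized vehicle = 0%, zero RLU = -100%.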

Activity change, negative = inhibition, inactive:
COc1ccc(-c2noc(CC(=O)N(C)c3ccccc3F)n2)cc1 -7.72%, COc1ccc(NC(=O)C2=C(C)Nc3nc(SCc4ccc(C)cc4C)nn3C2c2cccc(OC)c2OC)cc1 (centres undefined) -0.145%, Cc1[nH]c(=O)[nH]c(=O)c1S(=O)(=O)Nc1cccc(Cl)c1C -7.97%, CCOc1ccc(CNC(=O)Cn2nc(C)c3nn(-c4ccc(Cl)cc4)c(C)c3c2=O)cc1 8.63%, Cc1oc2ncnc(N3CCCCC3)c2c1C(=O)NCC1CCN(Cc2ccccc2F)CC1 11.2%, COc1ccccc1NC(=O)c1sc2nc(-c3cc4cc(Cl)ccc4oc3=O)[nH]c(=O)c2c1C -3.53%, O=c1[nH]c(=O)n([C@H]2C[C@@H](O)[C@@H](CO)O2)cc1F -22.8%, O=C(NCCN1CCOCC1)c1ccc(Cl)cc1 16.3%, COc1ccc(OC)c(NC(=O)Cn2nc3c(cc2=O)CCCC3)c1 -14.7%, COc1ccc(CCNS(=O)(=O)c2ccc3c(c2)c(=O)n(C)c(=O)n3C)cc1OC -0.0934%, Cc1ccc(NC(=O)c2nc(S(C)(=O)=O)ncc2N(Cc2cccc(F)c2)Cc2ccco2)cc1C -31.7%, Cc1ccc(NC(=O)CCCc2nnc3n(C)c(=O)c4sccc4n23)cc1C -18.3%, Cc1ccc(S(=O)(=O)c2cn(C)c3cc(N4CCOCC4)c(F)cc3c2=O)c(C)c1 -2.6%, Oc1c(C(c2ccc(F)cc2)N2CCCC2)sc2nc(-c3ccco3)nn12 (centres undefined) -8.66%, Cc1ccc(CCNC(=O)C2COc3ccccc3C2)cc1 (centres undefined) -6.39%, O=C(Oc1ccccc1C(=O)O)c1ccccc1O 4.2%, Cc1ccc(Cl)cc1-n1c(=O)c2sc3ccccc3c2n(CC(=O)NC2CCCC2)c1=O -26.2%, Cc1ccc2c(c1)-c1onc(C(=O)N3CCN(c4cc(C)ccc4C)CC3)c1CO2 -9.84%, Cc1cc(C)n(-c2nc3cc(Cl)ccc3nc2N2CCN(c3cccc(C)c3C)CC2)n1 -9.53%, COc1ccccc1CNS(=O)(=O)c1c(C(=O)N2CCC(C)CC2)c(C)n(C)c1C -16.4%, Cc1ccc(CCNC(=O)Cn2ncc3c([nH]c4ccccc43)c2=O)cc1 1.4%, COc1ccc(C)cc1NC(=O)CSc1nc(=O)n(Cc2cccnc2)c2c1CCC2 0%, COC(=O)c1ccccc1NC(=O)CSc1cc(-c2ccccc2)nc(C)n1 -11.8%, O=C(CCn1c(=O)c2cccn2c2ccc(F)cc21)NCCc1ccc(Cl)cc1 2.14%, COc1ccc(NC(=O)N2CCC(CN3CCCC3)CC2)c(OC)c1 -14.5%, Clc1ccc(-c2ccc(CNCCSc3nnnn3-c3ccccc3)o2)cc1 -16%, Clc1ccccc1-c1nc(-c2ccncc2)no1 30.1%, CC(C)(C)OC(=O)N1CCC(c2c(C(=O)NCCN3CCOCC3)cnn2-c2cccc(F)c2)CC1 -24.6%, CCN1CCN(c2oc(-c3ccc(COc4ccc(OC)cc4)o3)nc2C#N)CC1 -25.4%, COc1c(C)c2c(c(O)c1C/C=C(\C)CCC(=O)O)C(=O)OC2 -20.7%, COc1ccc(C2(CNC(=O)C(=O)Nc3ccc(C)c(Cl)c3)CCCC2)cc1OC -8.38%, CCN(CC)S(=O)(=O)c1nnc(NC(=O)COc2ccccc2)s1 -0.156%, COc1ccc(OC)c(C(=O)CN2C(=O)N(c3cc(C)cc(C)c3)S(=O)(=O)c3ccccc32)c1 -20.2%, Cc1ccc(NC(=O)CSc2nnc(C)s2)c(C)c1 -6.53%, NS(=O)(=O)c1cc(Cl)c(Cl)c(S(N)(=O)=O)c1 -7.24%, COc1ccc(NC(=O)C2CCN(c3nc4ccccc4[nH]3)CC2)cc1OC -0.706%, Cc1cc(O)c(C(c2ccc(F)cc2)N2CCN(c3ccccc3)CC2)c(=O)n1Cc1ccco1 (centres undefined) -1.24%, CC(NC(=O)c1cccc(Nc2nc3ccccc3n3nnnc23)c1)c1ccccc1 (centres undefined) 18.8%, CS(=O)(=O)c1ccc(-c2cnc(N)c(C(=O)Nc3ccccc3)n2)cc1 -21.5%, O=C(CSc1nc2c(c(=O)[nH]1)CCC2)Nc1cccc(O)c1 0.546%, COc1ccc(OC)c(NC(=O)Nc2cccc(OCc3cc(=O)n4cc(C)ccc4n3)c2)c1 40.7%, CCn1c(=O)c2sccc2n2c(CCCC(=O)Nc3ccc(C)cc3)nnc12 -12.2%, Cc1ccc(N2CCN(c3ncnc4onc(-c5ccc(F)cc5)c34)CC2)c(C)c1 -5.12%, Cc1ccc(S(=O)(=O)NCCc2nnc3ccc(SCc4cccc(F)c4)nn23)cc1 -14.2%, COc1ccc(-c2nc3ccccc3o2)cc1NC(=O)c1ccc(-c2ccc(C)c(Cl)c2)o1 -3.13%, Cc1ccc(Nc2c(-c3ccco3)nc3ccc(C)cn23)cc1 6.56%, CCN(C(=O)c1cc2c(=O)oc3ccccc3c2s1)c1cccc(C(F)(F)F)c1 -11.8%, O=C(CN1C=NS(=O)(=O)c2ccccc21)Nc1ccc(Br)cc1 -13.8%, Cc1ccccc1CNC(=O)CCCn1ncn2c(cc3occc32)c1=O -10.3%, Cc1cccc(-n2nnc(-c3nc(-c4cccs4)no3)c2N)c1C 104%, COc1ccc(NC(=O)CSC2=Nc3ccccc3C3=NC(Cc4ccccc4)C(=O)N23)cc1 (centres undefined) -24.2%, COCCNC(=O)c1ccc2c(c1)NC(=O)C(CS(=O)(=O)Cc1ccc(F)cc1Cl)N2 (centres undefined) -2.5%, COc1ccc(NC(=O)c2c(NC(=O)c3cccc(C)c3)sc3c2CCC3)cc1 -9.9%, Cc1ccccc1CN1C(=O)c2ccccc2Sc2ccc(C(=O)N3CCOCC3)cc21 -16.4%, COc1ccccc1-c1c(C(F)(F)F)oc2c(CN3CCCCC3C)c(O)ccc2c1=O (centres undefined) -5.9%, Cc1cccc(-c2nc(-c3ccc4c(c3)[nH]c(=O)n4C)no2)c1 11.7%, O=C(Nc1ccc2oc(-c3cccc4c(Br)cccc34)nc2c1)c1ccc(Br)cc1 -17.1%, Cc1cc(F)ccc1NC(=O)CCS(=O)(=O)c1cccc2nsnc12 -3.96%, Cc1cccc(NC(=O)CSc2nc3c(oc4ccccc43)c(=O)n2-c2ccccc2)c1C -10.7%, CCN1CCCC(OC(=O)C(c2ccccc2)c2ccccc2)C1 (centres undefined) -0.662%, COc1cc(-c2cc3n(C)c(C)c(CCC(=O)Nc4ccc(F)cc4)c(=O)n3n2)cc(OC)c1OC 9.35%, COc1ccc(Cn2c(=O)c3oc4ccccc4c3n(Cc3ccccc3)c2=O)cc1 1.2%, CCOC(=O)c1[nH]c(C)c(CCC(=O)NCc2cccc(Cl)c2)c1C -12.9%, Nc1ccc(C(=O)O)cc1 11.5%, COC(=O)c1ccc([C@@H]2Nc3c(cccc3C(F)(F)F)[C@@H]3C=CC[C@@H]32)cc1 -24.3%, Nc1nc2nc(-c3ccc(Cl)cc3)cc(C(F)(F)F)n2n1 6.25%, CC(=O)N1c2ccccc2C(=O)C1N1CCN(c2cccc(C)c2C)CC1 (centres undefined) -15.7%, Cc1ccc(NC(=O)CSc2nc3c(c(=O)[nH]2)CN(Cc2ccccc2)CC3)cc1Cl -26%, Nc1nonc1-c1nc2ccccc2n1Cc1ccc(Br)cc1 -12.7%, CC(C)(Oc1ccc(Cl)cc1)C(=O)Nc1cccc(-c2cn3cccnc3n2)c1 -24.9%, CC1(C)CC(=O)c2cc(C(=O)Nc3ccc(Cl)cc3)c(=O)[nH]c2C1 33.8%, O=C(CC(c1cccs1)N1Cc2ccccc2C1=O)Nc1ccccc1F (centres undefined) -25%, COC(=O)c1cc2occc2n1Cc1ccc(F)cc1Cl -14.4%, Cc1ccc(NC(=O)CN2C(=O)CSc3ccc(S(=O)(=O)N(C)C)cc32)cc1C -23.2%, Cc1ccc(CSC2=Nc3ccccc3C3=NC(CCC(=O)NCCc4ccccc4)C(=O)N23)cc1 (centres undefined) -21.9%, COc1ccc(-c2nc(S(=O)(=O)c3ccc(Cl)cc3)c(N3CCCCCC3)o2)cc1 -3.37%, CCOc1cc(C2C(C(N)=O)=C(C)Nc3ncnn32)cc(Br)c1O (centres undefined) -7.82%, CCc1noc(-c2ccc(N3CCCCC3)c([N+](=O)[O-])c2)n1 40.1%, Cc1cc(OCC(=O)NCC2(N3CCOCC3)CCCCC2)ccc1Cl -26.3%, CCc1cccc(NC(=O)C(CC(C)C)NS(=O)(=O)c2ccc3c(c2)oc(=O)n3C)c1 (centres undefined) -34.4%, CCC(=O)N1CCc2cc(CNC(=O)Nc3cc(Cl)ccc3C(=O)OC)ccc21 -26.2%, COc1ccccc1CN1CCC(CNC(=O)c2cnn(-c3ccc(C)c(C)c3)c2C2CCN(C(=O)OC(C)(C)C)CC2)CC1 -20.3%, Brc1ccc2nc(-c3ccccc3)c(Nc3ccc4c(c3)OCO4)n2c1 1.43%, CCc1ccc(CNC(=O)CN2C(=O)CCn3nc(-c4cn(C)c5ccccc45)cc32)cc1 -2.41%, O=C(Nc1cccc(Cl)c1)C1CCCN1S(=O)(=O)c1cccc2cccnc12 (centres undefined) -26.9%, Cn1nnnc1SCCNCc1ccc(OCc2ccc(Cl)cc2)cc1 -6.65%, CC(C)(C)c1nc(-c2cccc(NS(=O)(=O)c3c(F)cccc3F)c2F)c(-c2ccnc(N)n2)s1 -17%, Cc1cc(Cl)ccc1OCc1cc(=O)n2c3c(sc2n1)CCCC3 -10.9%, Cc1ccc(CN2C(=O)c3ccccc3Sc3ccc(C(=O)NCCCN4CCOCC4)cc32)cc1 -22.7%, Cc1oc(-c2cccc(Cl)c2)nc1CN1CCC(C(=O)NCCc2ccc(Cl)cc2)CC1 -13%, COc1cccc(OCC(=O)Nc2nnc3n2CCS3)c1 -5.22%, COc1ccc(C(=O)Nc2ccc(N3CCOCC3)c(C(F)(F)F)c2)cc1OC -38.7%, C[C@H]1O[C@@H](n2cc(F)c(=O)[nH]c2=O)[C@H](O)[C@@H]1O 5.97%, COc1cccc2c1CCCC2CCCN1CCN(C2CCCCC2)CC1 (centres undefined) -3.98%, Cc1cccc(NC(=O)CSc2nc(=O)n(Cc3cccnc3)c3c2CCC3)c1C -22.5%, COc1ccccc1NC(=O)c1cc(S(=O)(=O)N2CCc3ccccc32)ccc1F -28.4%, COc1ccc(NC(=O)c2cc3c(=O)n(Cc4cccnc4)ccc3nc2C)cc1Cl 4.85%, Cc1cccc(N2CCN(c3c4c(nc5nncn35)CCC4)CC2)c1C -5.99%, COc1cc(-c2nnc(SCC(=O)Oc3ccccc3Cl)o2)cc(OC)c1OC 0.0194%
